The results in this text go back to PubChem BioAssay AID1159614 (National Center for Advancing Translational Sciences (NCATS), 2016).

Molecules are shown by their SMILES. Screen size: about 45,000 compounds; about 65 (0.1%) were called active. Calls follow the shape of the dose curve; as a rule, active = well fitted activation curve with a large enough effect; inconclusive = small, poorly fitted or top-dose-only effect; inactive = no such curve, though single readings can be large or run the other way. The list shows a part of the results.

The test concerns the target Galactocerebrosidase (Homo sapiens) (UniProt P54803). The experiment in a line: A Novel Cell-Based Assay to Identify Small Molecules for B -Galactocerebrosidase. Also: 0% is about no effect; nearly all actives have a fitted effect of over 65% in size. Conditions: 145M-Twi-hGALC-G270D cells (Twitcher mouse brain line with human GALC G270D), HMU-beta-Gal fluorescence, 48 h; series mostly up to 57.5 µM; activation: at the top concentration. The gist of the method: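 Mutant human GALC (G270D), stably expressed in a Twitcher mouse brain cell line lacking endogenous GALC, is measured in live-treated cells via 6-hexadecanoylamino-4-methylumbelliferyl-β-galactoside hydrolysis (0.1 mM final, pH 5.2) with fluorescent detection.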
Chain of UniProt P54803 (P54803 whole entry, looked up): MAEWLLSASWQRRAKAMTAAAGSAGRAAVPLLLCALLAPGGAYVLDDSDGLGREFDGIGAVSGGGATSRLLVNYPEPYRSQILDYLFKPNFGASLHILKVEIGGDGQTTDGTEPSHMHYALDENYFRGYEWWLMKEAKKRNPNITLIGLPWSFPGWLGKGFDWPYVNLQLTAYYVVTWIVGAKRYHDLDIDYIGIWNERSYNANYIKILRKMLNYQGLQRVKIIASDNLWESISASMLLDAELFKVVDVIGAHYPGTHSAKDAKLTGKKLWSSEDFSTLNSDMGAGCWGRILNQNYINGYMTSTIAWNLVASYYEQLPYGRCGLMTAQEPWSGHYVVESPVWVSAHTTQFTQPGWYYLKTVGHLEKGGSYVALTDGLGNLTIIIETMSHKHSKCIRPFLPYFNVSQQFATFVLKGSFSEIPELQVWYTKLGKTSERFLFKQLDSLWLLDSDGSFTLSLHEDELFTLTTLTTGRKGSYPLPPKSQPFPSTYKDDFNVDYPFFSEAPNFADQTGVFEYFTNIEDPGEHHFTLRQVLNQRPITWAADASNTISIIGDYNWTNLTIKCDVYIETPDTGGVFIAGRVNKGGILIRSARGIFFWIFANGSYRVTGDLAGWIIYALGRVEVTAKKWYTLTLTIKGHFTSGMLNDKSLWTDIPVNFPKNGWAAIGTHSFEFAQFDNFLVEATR
Turning to `Nc1ccc(S(=O)(=O)NC(=O)c2ccccc2)cc1`, the “activation” value is inactive: 3.74%.

For `O=C(c1ccco1)N1CCN(c2nc3c(F)cc(F)cc3s2)CC1`, the “activation” value is inactive: -26.3%.

For `O=C(/C=C/c1ccco1)Nc1ccc(F)cc1`, the “activation” value is inactive: -10.2%.

Turning to `COC(=O)c1c(SC)nc2ccccc2c1OCc1ccc(Br)cc1`, the “activation” value was inactive: -0.583%.

For `CCOC(=O)C1CCCN(c2nc3c(S(=O)(=O)c4ccc(Br)cc4)nnn3c3ccsc23)C1` (configuration not stated), the “activation” value is inactive: -15.6%.

For `COc1cc(OC)cc(C(=O)Nc2cc(-c3nc4ccccc4[nH]3)ccc2C)c1`, the “activation” value was inactive: -8.6%.

On to `Cc1ccccc1CNC(=O)c1nn(-c2ccccc2F)nc1CO`, for which the “activation” value is inactive: 1.09%.

In the case of `COc1cccc2c1Oc1ncccc1N(C(=O)CCC(=O)NCCC(C)C)C2`, the “activation” value was inactive: -2.45%.

With `COc1ccc(C(=O)Nc2ccc(-c3nnc4n3CCCCC4)cc2)cc1`, the “activation” value was inactive: 3.74%.

In the case of `CCn1nc(-c2ccccc2)c(-c2ccccc2)c(C(=O)Nc2ccc(S(N)(=O)=O)cc2)c1=O`, the “activation” value is inactive: 0.965%.

For `O=c1c2sccc2n(Cc2cc(=O)n3ccccc3n2)c(=O)n1-c1cc(F)ccc1F`, the “activation” value was inactive: -13.3%.

For `CCOC(=O)CN1CCCC1=O`, the “activation” value was inactive: -15.4%.

For the molecule `OC[C@H]1O[C@@H](O[C@@H]2[C@@H](CO)O[C@](O)(CO)[C@H]2O)[C@H](O)[C@@H](O)[C@H]1O`, the “activation” value is inactive: -2.52%.

For `COc1ccc(CCNC(=O)CSc2nc3nc(C)c(Cc4ccc(C)cc4)c(C)n3n2)cc1OC`, the “activation” value is inactive: -22.8%.

With `CCN(CC)CCCNc1cc(-c2ccccc2)nc(C)n1`, the “activation” value was inactive: -13.7%.

With `Cc1ccc(C)c(OCCn2c(C3CC(=O)N(Cc4ccc(F)cc4)C3)nc3ccccc32)c1` (configuration not stated), the “activation” value is inactive: -32%.

`CCN1CCN(C(=O)c2ccc3c(c2)N(Cc2cccc(Cl)c2)C(=O)c2ccccc2S3=O)CC1` (configuration not stated): the “activation” value is inactive: -16.4%.

As to `Cc1cc(C)c(NC(=O)CSc2nc3ccccc3c3nc(CCn4cncc4C)nn23)c(C)c1`, the “activation” value was inactive: -4.29%.

Turning to `O=S(=O)(c1ccc(Cl)cc1)c1nc(-c2ccccc2Br)oc1NCc1ccccc1`, the “activation” value was inactive: -14.9%.

Take `C=C(CC)C(=O)c1ccc(OCC(=O)O)c(Cl)c1Cl`: the “activation” value was inactive: -8.5%.

As for `COc1cc(C(=O)N(Cc2ccc(F)cc2)Cc2ccco2)cc(OC)c1OC`, the “activation” value is inactive: 0.483%.

With `Cc1ccc(N(CC(=O)Nc2cccc(Cl)c2C)S(=O)(=O)c2c(C)noc2C)cc1`, the “activation” value is inactive: -8.07%.

In the case of `COc1ccc(Cn2c(=O)[nH]c3cc(C(=O)NCCC(C)C)ccc3c2=O)cc1`, the “activation” value is inactive: -10.1%.

Regarding `CCn1c(C)c(C)c2cc(C(=O)NCCCN3CCCCC3C)ccc21` (configuration not stated), the “activation” value was inactive: -2.07%.

As for `COc1ccc(CNC(=O)CS(=O)Cc2nc(-c3ccc(OC)c(OC)c3)oc2C)cc1` (configuration not stated), the “activation” value is inactive: -14.6%.

With `CCOc1ccc2nc(N3CCN(C(=O)c4ccc(S(=O)(=O)CC)cc4)CC3)sc2c1`, the “activation” value was inactive: -33.9%.

`COc1ccc(-n2cc(C(=O)N(CCN(C)C)Cc3ccccc3)c3ccccc3c2=O)cc1`: the “activation” value is inactive: 3.26%.

With `Cc1ccc(/C=C/C(=O)Nc2nc(-c3cccs3)ns2)cc1`, the “activation” value was inactive: -13.1%.

On to `CCc1c(C)nc2nncn2c1Nc1ccc(Cl)cc1`, for which the “activation” value was inactive: -12.4%.

With `COc1ccc(-n2c(=O)c3c4c(sc3n(Cc3ccc(C)cc3C)c2=O)CCC4)c(OC)c1`, the “activation” value is inactive: -5.23%.

For `CCc1nc2ccccc2n2c(-c3ccccc3)c3c(=O)n(C)c(=O)n(C)c3c12`, the “activation” value was inactive: -15.3%.

Take `COc1cc(C(CC(=O)NCc2ccccc2)N2Cc3ccccc3C2=O)cc(OC)c1OC` (configuration not stated): the “activation” value was inactive: -12.6%.

For `CCC(C(=O)Nc1ccc(C(C)=O)cc1)n1cnc2nc3c(cc2c1=O)CCCC3` (configuration not stated), the “activation” value is inactive: -21.4%.

In the case of `COc1ccc(OC)c(CNC(=O)Cn2ncc3c([nH]c4ccc(C)cc43)c2=O)c1`, the “activation” value was inactive: 4.1%.

Turning to `CCOc1ccccc1NS(=O)(=O)c1ccc2c(c1)CC(C)N2C(=O)C1CC1` (configuration not stated), the “activation” value was inactive: -18%.

As for `O=C(NCCc1csc(-c2ccc(F)cc2)n1)c1ccco1`, the “activation” value was inactive: -16.2%.

For the molecule `CC1=C(C(=O)Nc2cc(Cl)ccc2C)C2(CCCCC2)OC1=O`, the “activation” value is inactive: -9.24%.

For the molecule `Cc1cc(C)n2nc(CNC(=O)c3ccccc3Cl)nc2n1`, the “activation” value is inactive: -4.03%.

Turning to `Cc1cc(C)cc(NC(=O)CCc2nnc3n(C)c(=O)c4sccc4n23)c1`, the “activation” value is inactive: -4.09%.

As for `CCOC(=O)c1c(C)[nH]c(C)c1S(=O)(=O)N(C)CC(=O)N1CCN(c2ccc(Cl)cc2)CC1`, the “activation” value is inactive: -15.2%.

In the case of `COC(=O)C1=C(C)N=C2SCCC(=O)N2C1c1ccc(OCc2ccccc2)c(OC)c1` (configuration not stated), the “activation” value was inactive: -10.7%.

On to `Cc1ccc(-c2c(C(=O)N3CCN(c4cccc(C)c4)C(C)C3)oc(=O)c3ccccc23)cc1` (configuration not stated), for which the “activation” value is inactive: 2.96%.

In the case of `CCC(CC)C(=O)OCc1cc(=O)n2nc(C3CCCCC3)sc2n1`, the “activation” value was inactive: 0.433%.

For `CCOc1ccc(CN2CCc3nc(N4CCN(c5ncccn5)CC4)ncc3C2)cc1OC`, the “activation” value was inactive: -10.7%.

On to `CC(C)(C)OC(=O)N1CCC(c2c(C(=O)NCCc3ccsc3)cnn2-c2ccccc2Cl)CC1`, for which the “activation” value is inactive: -17.5%.

In the case of `CCOc1ccc(N2C(=O)CS(=O)(=O)C23C(=O)N(Cc2cccc(Cl)c2)c2ccccc23)cc1` (configuration not stated), the “activation” value is inactive: -20.6%.

`COC(=O)c1c(SC)nc2ccccc2c1OCc1ccccc1Cl`: the “activation” value was inactive: -1.57%.

As to `CCOc1ccc(NC(=O)C2CCN(c3nc4ccccc4[nH]3)CC2)cc1`, the “activation” value was inactive: -13.4%.

Take `Cc1ccc(-c2nc3c(c(SCC(=O)N(C)c4ccccc4)n2)Cc2c(CO)cnc(C)c2O3)cc1`: the “activation” value is inactive: -20.4%.

In the case of `CCOC(=O)c1ccc(NC(=O)CSc2ccc(-c3ccccn3)nn2)cc1`, the “activation” value is inactive: -12.5%.

Consider `CCN(CC)c1cc(C)c2cc(NC(=O)c3ccccc3Cl)ccc2n1`, for which the “activation” value is inactive: -11.6%.

As to `CCC1CN(C(=O)NCc2ccccc2)c2cc(Cl)ccc2O1` (configuration not stated), the “activation” value is inactive: -20%.

Regarding `O=C(Nc1cccc(OCc2cc(=O)n3ccccc3n2)c1)c1ccccc1Br`, the “activation” value is inactive: -30%.

With `COc1ccc(S(=O)(=O)NCCc2nnc3ccc(SCC(=O)Nc4cc(C)cc(C)c4)nn23)cc1`, the “activation” value is inactive: -5.08%.

`COc1ccc(N2CC(NC(=O)COc3ccc(F)cc3)CC2=O)cc1OC` (configuration not stated): the “activation” value was inactive: -10.8%.

On to `CCOCCn1c(C2CCN(CCc3ccc(C(C)(C)C(=O)O)cc3)CC2)nc2ccccc21`, for which the “activation” value is inactive: -8.16%.

`CC(C)(C)OC(=O)N1CCC(c2c(C(=O)Nc3ccc4c(c3)OCCO4)cnn2-c2ccc(F)cc2F)CC1`: the “activation” value was inactive: -10.6%.

As to `CCOC(=O)C(=O)NCC(c1cccnc1)N1CCN(c2ccccc2)CC1` (configuration not stated), the “activation” value was inactive: -9.02%.

For the molecule `CCOC(=O)CC(NC(=O)c1cc2cc(Br)cc(OC)c2oc1=O)c1ccc(OC)cc1` (configuration not stated), the “activation” value was inactive: -0.743%.

With `O=C(NCc1ccc2c(c1)CCN2C(=O)c1ccncc1)c1ccccc1Cl`, the “activation” value was inactive: -11.6%.

As for `COc1cccc(N2CCN(C(=O)C3CCCN(S(=O)(=O)c4ccc5c(c4)oc(=O)n5C)C3)CC2)c1` (configuration not stated), the “activation” value was inactive: -14.7%.

For `COc1ccccc1CCNC(=O)C(=O)NCC(c1ccco1)S(=O)(=O)c1ccc(F)cc1` (configuration not stated), the “activation” value is inactive: -12%.
